Assay results taken from PubChem BioAssay AID1508624 (National Center for Advancing Translational Sciences (NCATS), 2021).
Hit rate of the full screen: of about 48,000 compounds, about 120 (0.25%) were called active. Inconclusive results, whose numbers are uncertain, are shown with a selection of clear calls. The call rests on the fitted dose curve; in most records, active means well fitted activation curve with a large enough effect; inconclusive means small, poorly fitted or top-dose-only effect, or another doubt; inactive means no such curve, though single readings can be large or run the other way. Potencies of inconclusive entries are doubtful fits and often do not repeat.
Potency means the concentration at half of the fitted maximal effect; tags describe the fitted curve by direction and shape.

Assay: Primary qHTS for Identification of Small Molecule Activators of Huntingtin-Antisense Promoter Activity; further: nearly all actives have a fitted effect of over 55% in size
Conditions: HEK293 HTT-AS promoter firefly luciferase reporter, 24 h; activity change, positive = activation: at 57.5 µM (top of the series), percent change from vehicle, -100% = no light
Summary of the method: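 Firefly luciferase readout (Dual-Glo, 10 min RT) after 24 h, 37 °C compound exposure (final up to 57.5 uM) of HEK293 reporter cells cultured 24 h beforehand; PTC124 at 50 uM final as control inhibitor; activity scaled vehicle 0%, zero RLU -100%.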
With O=S(=O)(c1cccc(Cl)c1)n1c(/C=C/c2ccccc2Cl)nc2ccccc21 the Potency was inconclusive: 0.1 µM [activator, full curve, poor fit]. With CC(C)Oc1ccc(C(=O)Nc2nnc3n2CCS3)cc1 the Potency was inconclusive: 2 µM [activator, full curve]. In the case of O=C(CCCCCn1c(=O)[nH]c2ccccc2c1=O)N1CCN(c2cccc(C(F)(F)F)c2)CC1, the Potency is reported as “inactive”. With COc1ccc(C)cc1NC(=O)CN(C)S(=O)(=O)c1ccc2c(c1)c(=O)n(C)c(=O)n2C the activity change, positive = activation was inconclusive: -33.9% [activator]. For CCOc1ccc(-c2cc(C(=O)NCCc3ccc(C)cc3)c3ccccc3n2)cc1, the Potency was inconclusive: 5.62 µM [activator, partial curve, poor fit]. With COc1ccc(-c2coc3cc(O)cc(O)c3c2=O)cc1 the Potency was inconclusive: 7.69 µM [activator, full curve]. For CCOC(=O)CC(NC(=O)Cn1nnc(-c2ccc(Cl)cc2)n1)c1ccc(OC)cc1 (centres undefined), the Potency was “inactive”. In the case of Cc1ccc(NC(=O)c2c(NC(=O)c3ccc(F)cc3)sc3c2CCCC3)cc1C, the Potency is reported as inconclusive: 14.1 µM [activator, single point]. With Cc1ccc(NC(=O)Nc2cccc(C)n2)cc1 the Potency was inconclusive: 2.24 µM [activator, full curve]. For O=C(OCc1cc(=O)n2nc(-c3cccs3)sc2n1)c1ccccc1, the Potency was inconclusive: 6.31 µM [activator, partial curve, poor fit]. For COc1ccc(Nc2cc(-c3cnc(N)nc3)nc(N3CCOCC3)n2)cn1, the Potency was “inactive”. For COc1ccc2oc(=O)c(C(=O)Nc3cccc(C(=O)O)c3)cc2c1, the activity change, positive = activation was inconclusive: -50.1% [activator]. With N=c1n(CCN2CCCCC2)c2ccccc2n1CC(O)COc1ccccc1 (centres undefined) the Potency was “inactive”. In the case of O=C(COc1ccc(F)cc1)Nc1cccc(OCc2cc(=O)n3ccccc3n2)c1, the Potency is reported as inconclusive: 2 µM [activator, full curve, poor fit]. In the case of Fc1ccc(-n2ncc3c(Nc4ccc(Oc5ccccc5)cc4)ncnc32)cc1, the Potency is reported as inconclusive: 3.98 µM [activator, full curve]. For CCOc1ccc2nc(N3CCCC(C(=O)NCc4ccc(OC)cc4)C3)sc2c1 (centres undefined), the Potency was inconclusive: 1.41 µM [activator, partial curve, poor fit]. For COc1cccc(-c2cc(C(=O)NCc3ccccc3)[nH]n2)c1, the Potency was inconclusive: 3.98 µM [activator, full curve]. In the case of CCOc1nc(NC(=O)NS(=O)(=O)Oc2ccc(Cl)cc2)nc(-c2ccccc2)n1, the Potency is reported as inconclusive: 11.2 µM [activator, partial curve, poor fit]. With O=C(NCCc1ccccc1)c1cc(-c2ccccc2)nc2n[nH]c(-c3ccccc3)c12 the Potency was inconclusive: 5.01 µM [activator, partial curve]. For CN(C)c1ccc(/C=C(\C#N)c2nc3ccccc3c(=O)[nH]2)cc1, the Potency was inconclusive: 0.398 µM [activator, full curve, poor fit]. For Cc1ccc(CSc2ncccc2C(=O)O)cc1, the Potency was inconclusive: 39.8 µM [activator, single point]. In the case of Cc1ccc(-c2ncn(-c3ccc(Nc4nccc(-c5cccc(N6CCOCC6)c5)n4)cc3)n2)cn1, the Potency is reported as active: 1.22 µM. With O=C(Nc1ccc(Br)cc1)c1ccc(Br)c(S(=O)(=O)N2CCCCC2)c1 the Potency was “inactive”. In the case of CN(C)c1ccc(C(CNC(=O)c2ccccc2F)N2CCc3ccccc32)cc1 (centres undefined), the Potency is reported as inconclusive: 11.2 µM [activator, partial curve, poor fit]. For COc1cccc(-c2nc(CS(=O)(=O)CC(=O)Nc3cc(F)ccc3F)c(C)o2)c1, the activity change, positive = activation was inconclusive: -21.9% [activator]. With CCS(=O)(=O)c1nc2ccccc2n1CC(=O)Nc1ccccc1C(=O)OC the Potency was inconclusive: 3.98 µM [activator, partial curve, poor fit]. For C=Cc1ccc(Cn2c(C(=O)OC)cc3sc(C)cc32)cc1, the Potency was inconclusive: 14.1 µM [activator, partial curve]. With Cc1ccccc1NC(=O)CSc1nnc(-c2cccc(Cl)c2)o1 the Potency was inconclusive: 14.1 µM [activator, partial curve, poor fit]. In the case of COc1cccc(CNC(=O)c2cccc(NC(=O)c3nsc4ccccc34)c2)c1, the Potency is reported as inconclusive: 1.26 µM [activator, partial curve, poor fit]. For COc1cccc(Nc2cc(-c3ccccc3)nc(C)n2)c1, the Potency was inconclusive: 12.6 µM [activator, partial curve, poor fit]. In the case of CN(C)c1ccc(-c2nc(-c3ccncc3)no2)cc1[N+](=O)[O-], the Potency is reported as inconclusive: 1.26 µM [activator, partial curve, poor fit]. In the case of O=C(O)c1ccc(-n2nc(-c3ccccc3O)nc2-c2ccccc2O)cc1, the Potency is reported as inconclusive: 6.85 µM [activator, full curve]. In the case of CCc1ccc(NC(=O)CSc2nc(=O)n(Cc3cccnc3)c3c2CCC3)cc1, the activity change, positive = activation is reported as inconclusive: -82.1% [activator]. For Cc1ccc(-c2nc3ccc(Br)cn3c2Nc2ccc3c(c2)OCO3)o1, the Potency was inconclusive: 3.16 µM [activator, full curve]. In the case of O=C(Nc1ccc(F)cc1F)c1ccc(-c2ccccc2)s1, the Potency is reported as “inactive”. For CCCC(=O)Nc1ccc2nn(-c3ccc(CC)cc3)nc2c1, the Potency was inconclusive: 31.6 µM [activator, partial curve, poor fit]. With COC(=O)CCc1ccc(OCC(O)CNC(C)C)cc1 (centres undefined) the Potency was “inactive”. For COc1cc(C2c3c(-c4c(C)cc(C)cc4O)n[nH]c3C(=O)N2CCO)cc(OC)c1OC (centres undefined), the Potency was “inactive”. With Cc1nc2nc(SCc3c(F)cccc3Cl)nn2c(C)c1Cc1ccccc1 the Potency was inconclusive: 1.58 µM [activator, full curve, poor fit]. For Cc1ccc(CSc2ccc(-c3cccs3)nn2)cc1, the Potency was inconclusive: 10 µM [activator, partial curve, poor fit]. In the case of CCOc1cc2sc(N3CCC(C(=O)Nc4ccccc4Cl)CC3)nc2cc1Br, the Potency is reported as inconclusive: 2 µM [activator, full curve]. With Cc1ccc(-c2nn(CC(=O)NC3CCCC3)c3c2cnc2ccc(F)cc23)cc1C the Potency was inconclusive: 15.8 µM [activator, partial curve, poor fit]. In the case of O=c1cc2nc(-c3cccs3)nc(SCCOc3ccc(Cl)cc3)n2[nH]1, the Potency is reported as “inactive”. With CCn1c(=N)c(C(=O)NC2CCCCC2)cc2c(=O)n3cccc(C)c3nc21 the Potency was “inactive”. In the case of COc1cc(Cl)c(C)cc1Nc1nc2ccccc2nc1NS(=O)(=O)c1ccccc1, the Potency is reported as inconclusive: 1.78 µM [activator, full curve, poor fit]. With Cc1ccc(O)c(NC(=O)c2noc3c2CCCCC3)c1 the Potency was inconclusive: 2.51 µM [activator, partial curve, poor fit]. With Nc1c(-c2nc(-c3cccs3)no2)nnn1-c1cccc(F)c1 the Potency was inconclusive: 0.891 µM [activator, full curve, poor fit]. With Cc1ccc(C)c(OCCCC(C)(C)C(=O)O)c1 the Potency was inconclusive: 43.2 µM [activator, single point]. With CCCCCCSc1nc(N)c2c3c(sc2n1)CCCC3C (centres undefined) the Potency was inconclusive: 14.1 µM [activator, partial curve]. With O=C(Nc1ccccc1)c1ccc(Cl)c(S(=O)(=O)Nc2ccccc2)c1 the Potency was inconclusive: 4.47 µM [activator, partial curve]. With Cc1cc(Nc2cccc(Cl)c2)nc2ccc(NC(=O)Cc3c(F)cccc3Cl)cc12 the Potency was “inactive”. For CC1CCc2nc3ncn(Cc4cccc(F)c4)c(=O)c3cc2C1 (centres undefined), the Potency was inconclusive: 15.8 µM [activator, partial curve, poor fit]. In the case of CNC(=O)C1CCC(Cn2c(=O)c3sccc3n(CC(=O)Nc3ccccc3)c2=O)CC1 (centres undefined), the activity change, positive = activation is reported as inconclusive: -88.4% [activator]. In the case of COCCNC(=O)c1cc(-c2cccc(Cl)c2)on1, the Potency is reported as inconclusive: 10 µM [activator, partial curve]. In the case of Cc1c(C(=O)Nc2ccccc2F)sc2nc3n(c(=O)c12)CCC3, the Potency is reported as inconclusive: 1.58 µM [activator, full curve, poor fit]. For CCOC(=O)C(Cc1ccccc1)NC(=O)Cn1nnc(-c2ccc(C)cc2)n1 (centres undefined), the Potency was “inactive”. In the case of CN1CCN(C(=O)C2CCCCC2)CC1, the Potency is reported as “inactive”. With CC(C)c1nn2c(=O)cc(COC(=O)c3cccc(NC(=O)CCc4ccccc4)c3)nc2s1 the Potency was inconclusive: 2 µM [activator, full curve, poor fit]. In the case of CCOc1ccc(NS(=O)(=O)c2ccc3[nH]cc(C(=O)NCc4ccccc4)c(=O)c3c2)cc1, the Potency is reported as “inactive”. In the case of C[C@H](N)C(=O)N[C@@H](C)C(=O)NC1[C@H]2CN(c3nc4c(cc3F)c(=O)c(C(=O)O)cn4-c3ccc(F)cc3F)C[C@@H]12 (some centres undefined), the Potency is reported as “inactive”. For Fc1ccc(Cc2cn3cc(-c4ccc(Cl)cc4)nc3s2)cc1, the Potency was inconclusive: 0.178 µM [activator, full curve, poor fit]. With O=C(CSc1nccn1Cc1ccccc1)Nc1ccc2c(c1)OCO2 the Potency was inconclusive: 15.8 µM [activator, partial curve]. For Cc1ccc(OCc2nc(-c3ccc(C(=O)N4CCN(c5ccccc5)CC4)cc3)oc2C)cc1, the Potency was inconclusive: 2.82 µM [activator, partial curve, poor fit]. With CCOC(=O)c1c(NC(=O)CSc2nc(-c3ccccc3)cc(C(F)(F)F)n2)sc(C)c1C the Potency was inconclusive: 3.55 µM [activator, single point].
